Data: patent US4200631A, “Treating mammalian subject sensitive to indomethacin ulcerogenisis” (priority 1978, dated 1980)
Where two headings read alike, the source gives them in different places.

How the values were obtained:
[1] = Gastrointestinal blood loss in healthy subjects, Cr51 labeled erythrocytes (Table 13); settings: 3 days
[2] = type: in vivo, human; settings: total daily dose 75 mg p.o., 4 weeks

O=C([O-])c1ccccc1O.[Na+] [Sodium salicylate]
Mean daily blood loss (ml) ± S.D. ([1]; total daily dose 3000 mg p.o.): 1.16 ± 1.8 mL

CC(=O)Oc1ccccc1C(=O)O [Aspirin, acetylsalicylic acid]
Mean daily blood loss (ml) ± S.D. ([1]; total daily dose 3000 mg p.o.): 1.50 ± 0.5 mL

COc1ccc2c(c1)c(CC(=O)O)c(C)n2C(=O)c1ccc(Cl)cc1 [Indomethacin]
Mean daily blood loss (ml) ± S.D. [2]: 3.30 ± 0.79 mL | Mean daily blood loss (ml) ± S.D. ([1]; total daily dose 150 mg p.o.): 2.75 ± 1.3 mL

CCCCC1C(=O)N(c2ccccc2)N(c2ccccc2)C1=O [Phenylbutazone, 4-butyl-1,2-diphenyl-pyrazolidine-3,5-dione]
Mean daily blood loss (ml) ± S.D. ([1]; total daily dose 600 mg p.o.): 1.45 ± 0.7 mL
